Out of some 310,000 compounds screened, about 14,000 (4.5%) showed an effect of 50% or more. The effect is printed as a negative number. The list shows a part of the results.
Each compound was assayed against human ether-à-go-go-related gene (hERG) potassium channel (human, UniProt Q12809) (assay: primary screen, population patch clamp on CHO cells stably expressing hERG).
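Further: peak tail current of the secondary pulse compared with the same well before compound.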

Chain of human ether-à-go-go-related gene (hERG) potassium channel (Q12809 whole entry, looked up): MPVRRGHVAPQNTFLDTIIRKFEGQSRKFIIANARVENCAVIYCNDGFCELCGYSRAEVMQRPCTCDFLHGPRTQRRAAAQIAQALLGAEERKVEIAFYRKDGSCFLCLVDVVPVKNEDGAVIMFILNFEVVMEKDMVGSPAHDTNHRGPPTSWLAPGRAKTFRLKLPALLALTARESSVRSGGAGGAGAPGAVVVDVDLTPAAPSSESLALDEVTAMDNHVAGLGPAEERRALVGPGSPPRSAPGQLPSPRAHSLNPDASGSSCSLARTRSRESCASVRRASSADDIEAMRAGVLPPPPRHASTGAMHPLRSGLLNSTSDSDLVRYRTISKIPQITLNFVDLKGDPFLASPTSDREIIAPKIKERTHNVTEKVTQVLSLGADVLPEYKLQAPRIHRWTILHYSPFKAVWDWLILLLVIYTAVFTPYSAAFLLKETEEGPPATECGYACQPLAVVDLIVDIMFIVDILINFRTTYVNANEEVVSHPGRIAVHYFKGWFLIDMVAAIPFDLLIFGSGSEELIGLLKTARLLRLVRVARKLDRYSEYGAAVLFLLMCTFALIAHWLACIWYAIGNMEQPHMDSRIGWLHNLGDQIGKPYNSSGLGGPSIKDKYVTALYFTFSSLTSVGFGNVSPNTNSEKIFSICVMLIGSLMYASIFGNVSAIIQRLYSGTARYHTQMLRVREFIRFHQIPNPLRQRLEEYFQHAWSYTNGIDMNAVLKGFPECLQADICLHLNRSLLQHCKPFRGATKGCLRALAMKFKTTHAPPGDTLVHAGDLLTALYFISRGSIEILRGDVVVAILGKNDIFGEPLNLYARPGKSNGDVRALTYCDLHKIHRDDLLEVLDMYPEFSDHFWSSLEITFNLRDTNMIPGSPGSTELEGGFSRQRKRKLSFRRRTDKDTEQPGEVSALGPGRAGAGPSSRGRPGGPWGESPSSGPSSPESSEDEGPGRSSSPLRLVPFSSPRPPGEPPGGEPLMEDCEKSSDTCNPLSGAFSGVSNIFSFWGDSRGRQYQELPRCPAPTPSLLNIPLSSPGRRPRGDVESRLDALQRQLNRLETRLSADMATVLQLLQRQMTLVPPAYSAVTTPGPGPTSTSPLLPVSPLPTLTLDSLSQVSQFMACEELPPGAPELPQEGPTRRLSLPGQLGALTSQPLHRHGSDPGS

Compound	hERG current change (%, negative = inhibition) at 10uM [%]
Cc1ccc(N=C(N(C)C)P(=O)(N(C)C)N(C)C)c(C)c1	5.12
CC(=O)C[C@H](O)CC(=O)[C@H]1OC(=O)CCCCCCCc2ccccc21	1.67
CC(=O)N1CCCN(Cc2cn(-c3cccc(C)c3)nc2-c2cccc(F)c2)CC1	-16.9
COc1cccc(NC(=O)CCC(=O)N2CC(C)Oc3ccc(C)cc32)c1 (centres unmarked)	-17.1
CCOC(=O)c1ccc(Nc2nc(N3CCOCC3)nc(N3CCOCC3)n2)cc1.Cl	-1.62
COc1ccc(CCNS(=O)(=O)c2ccc(Br)cc2)cc1	-11.5
O=C(O)CCCn1cc(NC(=O)c2ccc(F)cc2)cn1	26.1
CCOC(=O)c1ccc(-n2c(CN3CCN(CCO)CC3)nc3ccc([N+](=O)[O-])cc3c2=O)cc1	-25.1
CC(C)(C)OC(=O)NCCc1nnc(SCC(=O)Nc2ccc(Br)cc2)o1	-2.79
Cn1cc(C=C2C(=O)NC(=O)NC2=O)c2ccccc21	10.6
COn1c(SCC(=O)N(C)C)nc2ccccc2c1=O	8.12
CCc1c(C(=O)NNC(=S)Nc2ccc(S(=O)(=O)Nc3ncccn3)cc2)csc1C	22.7
CCN(CC(=O)Nc1cccc(OC)c1)C(=O)C1CCN(C(=O)Nc2ccccc2)CC1	16.7
COC(=O)c1cccc(NC(=O)C2COc3ccccc3O2)c1 (centres unmarked)	5.87
CCOC(=O)N1CCN(C(=O)C(=O)NNC(=O)COc2ccc(Cl)c(C)c2)CC1	-3.93
CCc1nnc(NC(=O)c2ccc(S(=O)(=O)N(CC(C)C)CC(C)C)cc2)o1	-4.9
O=C(NNc1cccc(Cl)n1)c1cccnc1Cl	17.5
CCOP(=O)(OCC)C(NC(=O)Cc1ccccc1)C(Cl)(Cl)Cl (centres unmarked)	11.5
COc1cccc(/C=C/C(=O)OCC(=O)c2ccc3c(c2)NC(=O)CO3)c1	12.7
O=C(CN1CCC(n2nnc3cc(C(F)(F)F)ccc32)CC1)NNC(=O)c1ccco1	-24.6
CCOc1ccc(C(=O)OCC(=O)NCCNC(=O)COC(=O)c2ccc(OCC)cc2)cc1	13.8
Cc1ccc(N2C(=O)N(CC(=O)Nc3ccc([N+](=O)[O-])cc3)C(=O)C2C)cc1 (centres unmarked)	11

Compound	hERG current change (%, negative = inhibition) at 10uM [%]
COc1ccc(OC)c(NC(=O)c2sc3nc(Cc4ccccc4)cc(C(F)(F)F)c3c2N)c1	6.89
Cc1ccc(OC(C)C(=O)Nc2cc(C)on2)cc1 (centres unmarked)	2.53
CN=c1scc(C)n1/N=C/c1cc(Br)c(O)c(Br)c1	12.8
Cc1c(Cl)cccc1NC(=S)N(Cc1cccs1)C1CCCC1	12.8
COc1ccc(S(=O)(=O)CCC(=O)Nc2cc(C)ccc2OC)cc1	-1.49
COc1cc(/C=C2/SC(=S)N(c3ccccc3)C2=O)ccc1Oc1nc(N2CCOCC2)nc(N2CCOCC2)n1	1.38
CCCNC(=O)c1ccccc1NC(=O)CN(c1ccccc1)S(=O)(=O)N(C)C	-6.38
COc1cc2c3nnc(-c4ccccc4)c-3cn(Cc3ccc(F)cc3)c2cc1OC	-76.8
Cc1ccc(-n2c(=O)[nH]c3c(C(N)=O)nc(C(C)C)nc32)cc1	15.1
CCC1C(=O)C(C)(C)C(=O)OC1c1ccc([N+](=O)[O-])cc1 (centres unmarked)	-7.26
Cc1ccc(Cn2c(CCNc3nc(-c4ccc(Cl)c([N+](=O)[O-])c4)cs3)nc3cc(Cl)c(Cl)cc32)cc1	-0.903
CCOC(=O)c1cc(-c2ccccc2)nc2nc(N(CC)CC)sc12	17.6
CCO[C@H]1OC(C(=O)NC2CC2)=C[C@@H](c2ccc(C(F)(F)F)cc2)[C@@H]1CCCO	-32.9
CC(C)CN(C(=O)COC(=O)c1ccccc1Sc1ccccc1C#N)C1CCS(=O)(=O)C1 (centres unmarked)	2.75
COc1ccc(N2CCN(C(=O)c3ccc(-c4nc5ccccc5s4)o3)CC2)cc1	0.875
Cn1c(N)c(C(=O)COC(=O)CCc2nc3ccccc3s2)c(=O)n(C)c1=O	5.93
Cc1c(C(=O)Nc2ccccc2F)sc2ncn(CC(=O)N3CCCCC3)c(=O)c12	10.6
C=CCN(CC(O)c1cccc([N+](=O)[O-])c1)C(C)CCc1ccccc1.Cl (centres unmarked)	-36.4
O=C(c1ccccc1)N1CCN(C2C3CC4CC(C3)CC2C4)CC1 (centres unmarked)	-5.27
COc1ccc2[nH]cc(CCN)c2c1	17.9
O=C1CNC(=S)N1Cc1ccccc1Cl	6.14
CS(=O)(=O)N(CC(=O)N1CCN(Cc2ccc3c(c2)OCO3)CC1)Cc1ccc(Cl)cc1	-34.7

Compound	hERG current change (%, negative = inhibition) at 10uM [%]
CCc1n[nH]c(=S)n1/N=C/c1ccc(NC(C)=O)cc1	13
N#Cc1cc2c(nc1SC1CCCCC1O)CCCC2 (centres unmarked)	-12
COc1ccnc2c1c(=O)n(Cc1ccccc1Cl)c(=O)n2C	-0.81
CCOC(=O)C1=C(C)NC(=O)NC1c1ccc(F)cc1 (centres unmarked)	12.9
Cc1c(C(=O)NNC(=O)c2ccncc2)oc2ccc(Br)cc12	-68.5
Cn1c(=O)c([N+](=O)[O-])c(NCc2ccc3c(c2)OCO3)c2ccccc21	-27.4
Nc1ncnc(Nc2cccc(Cl)c2Cl)n1	3.18
O=C1NC(=O)C(CC(=O)N(Cc2ccco2)C2(C(=O)NC3CCCC3)CCCCC2)N1 (centres unmarked)	22.9
CCCCC(=O)NC(c1ccc([N+](=O)[O-])cc1)c1c(O)ccc2ccccc12 (centres unmarked)	-12.9
COc1cccc(NC(=O)c2ccccc2-c2ccccc2C(=O)O)c1	10.1
Cc1cnc(NC(=O)c2ccc(-c3ccc([N+](=O)[O-])cc3)o2)s1	16.1
O=C(Cn1cccc1C(=O)c1ccccc1)NCCN1CCCCCC1	-35.3
Cl.N=c1ccn2c(n1)O[C@H]1[C@@H](CO)[C@H](O)O[C@H]12	14.8
Cc1ccccc1NC(=O)C(NS(=O)(=O)c1ccc2c(c1)c(=O)n(C)c(=O)n2C)c1ccccc1 (centres unmarked)	-21.3
CCNC(=O)CC1SC(=Nc2ccc(C)c([N+](=O)[O-])c2)N(C)C1=O (centres unmarked)	-2.45
Cc1nnc(SCc2ccc(F)cc2Cl)s1	-10.3
COC(=O)COc1ccc(-c2nccc(-c3ccccn3)n2)cc1	13.3
Cl.O=C(NCCN1CCCCC1)c1c(O)c2ccccc2[nH]c1=O	-18.5
CCCCc1nnc(NC(=O)c2ccc3c(=O)n4c(nc3c2)CCC4)s1	-15
Cn1c(=O)c2c(nc(CN3CCC(C(N)=O)CC3)n2Cc2c(Cl)cccc2Cl)n(C)c1=O	-11.8
Cn1cccc1C(=O)NC(=O)COC(=O)CC12CC3CC(CC(Br)(C3)C1)C2	5.79
Cc1ccc(S(=O)(=O)N2CCN(c3nc(CN4CCCC4)nc4sc(C)c(C)c34)CC2)cc1	-77.7

Compound	hERG current change (%, negative = inhibition) at 10uM [%]
O=C(c1ccncc1)c1ccc(NS(=O)(=O)c2ccc(Br)s2)cc1	-10.7
O=C(O)c1ccccc1NCc1cccs1	13.2
O=C(COc1ccccc1F)N/N=C1\CCCc2ccccc21	11.4
Cc1ccc(C(=O)N2CCN(S(=O)(=O)N3CCCCC3)CC2)cc1	7.35
CC(=O)Nc1ccc(NC(=O)CSc2nc3ccccc3nc2N2CCC(C)CC2)cc1	8.95
CC(C)(C)c1ccc(OCCC(=O)OCC(=O)N2c3ccccc3NC(=O)C2(C)C)cc1	-12.1
CC(=O)Nc1ccc(NC(=O)CC2CCCC2)cc1	16.7
COc1ccc(Cl)cc1NC(=O)NCCN1CCNC1=O	2.83
O=C(NCCn1cc(SCc2ccccc2)c2ccccc21)c1ccccc1F	8.39
COc1ccc(S(=O)(=O)Cc2ccc(C(=O)NCc3cccs3)o2)cc1	-29
Cc1ccc(C)c(NC(=O)CSc2nnc(CCCCCNC(=O)OC(C)(C)C)o2)c1	-29.8
CC(C)C(c1nnnn1CCc1ccccc1)N1CCOCC1 (centres unmarked)	-0.645
Cc1ccc(C(=O)O)cc1N1C(=O)c2cccc3c([N+](=O)[O-])ccc(c23)C1=O	8.43
c1ccc(CSc2nnc(NC3=NCCCCC3)s2)cc1	-18.1
O=C(O)c1ccccc1C(=O)NC1CCN(c2nccc(C(F)(F)F)n2)CC1	9.16
CCOC(=O)N1CCN(C(=O)Cn2ccc3c(OC)cccc3c2=O)CC1	6.78
CCn1nnc(-c2ccc(N)cc2)n1	13.8
CCOC(=O)c1cc2c(ccn2C)n1CC(=O)N(CC)CC	11.1
Cl.N#C/C(=C\c1ccccc1)C(=O)NCCN1CCOCC1	15
CN(C1CCS(=O)(=O)C1)S(=O)(=O)c1cccc2nsnc12 (centres unmarked)	-13.5
